PMC12820563
Some of the results follow. The list includes weakly bound sequences.

These sequences were tested against T1, MBP-FoxP3dN (UniProt Q99JB6) (assay: PD-seq (MBP pull-down with sequencing)). Conditions: 20 mM Tris-HCl pH 7.5, 100 mM NaCl, 1.5 mM MgCl2, 0.4 uM protein, 0.1 uM dsDNA library, 30 min, room temperature, amylose pull-down; high values mean tight binding; double strand, one strand shown.
T1 sequence: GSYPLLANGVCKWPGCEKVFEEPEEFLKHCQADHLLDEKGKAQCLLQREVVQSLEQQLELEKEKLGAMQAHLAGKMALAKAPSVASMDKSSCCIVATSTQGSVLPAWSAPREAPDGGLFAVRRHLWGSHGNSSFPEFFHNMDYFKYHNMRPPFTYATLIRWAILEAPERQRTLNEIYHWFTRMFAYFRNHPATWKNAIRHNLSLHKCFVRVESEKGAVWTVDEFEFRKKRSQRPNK
With “GATGATTGTTCTCCCAGCTGATGAATTCCTGAGATCGAGTAAACAAATTTTCCTAATCTTTCTGTTCAAGCGCCATCTAC” the binding signal (RPM ratio (pull-down/input)) was 0.228. “GATGATTGTTCTCCCAGCTGATGAATTGAAGCCGTCGAGTAAACAAATTTTCCTAATCTTTCTGTTCAAGCGCCATCTAC” showed a binding signal (RPM ratio (pull-down/input)) of 0.359. Sequence “GATGATTGTTCTCCCAGCTGATGAATTCGACACATCGAGTAAACAAATTTTCCTAATCTTTCTGTTCAAGCGCCATCTAC” has a binding signal (RPM ratio (pull-down/input)) of 0.639. In the case of “GATGATTGTTCTCCCAGCTGATGAATTTACAACGTCGAGTAAACAAATTTTCCTAATCTTTCTGTTCAAGCGCCATCTAC”, the binding signal (RPM ratio (pull-down/input)) is reported as 0.527. Work on “GATGATTGTTCTCCCAGCTGATGAATTGTCGGTCTCGAGTAAACAAATTTTCCTAATCTTTCTGTTCAAGCGCCATCTAC” yielded a binding signal (RPM ratio (pull-down/input)) of 0.424. Sequence “GATGATTGTTCTCCCAGCTGATGAATTGTAGAATTCGAGTAAACAAATTTTCCTAATCTTTCTGTTCAAGCGCCATCTAC” has a binding signal (RPM ratio (pull-down/input)) of 0.761. Work on “GATGATTGTTCTCCCAGCTGATGAATTTACATTCTCGAGTAAACAAATTTTCCTAATCTTTCTGTTCAAGCGCCATCTAC” yielded a binding signal (RPM ratio (pull-down/input)) of 0.674. “GATGATTGTTCTCCCAGCTGATGAATTGAGAGTATCGAGTAAACAAATTTTCCTAATCTTTCTGTTCAAGCGCCATCTAC” was tested, and the binding signal (RPM ratio (pull-down/input)) was 0.532. “GATGATTGTTCTCCCAGCTGATGAATTCTCCAGATCGAGTAAACAAATTTTCCTAATCTTTCTGTTCAAGCGCCATCTAC” was tested, and the binding signal (RPM ratio (pull-down/input)) was 0.141. “GATGATTGTTCTCCCAGCTGATGAATTCTAAGCTTCGAGTAAACAAATTTTCCTAATCTTTCTGTTCAAGCGCCATCTAC” was tested, and the binding signal (RPM ratio (pull-down/input)) was 0.271. “GATGATTGTTCTCCCAGCTGATGAATTTGCAATCTCGAGTAAACAAATTTTCCTAATCTTTCTGTTCAAGCGCCATCTAC” was tested, and the binding signal (RPM ratio (pull-down/input)) was 3. “GATGATTGTTCTCCCAGCTGATGAATTGGCGTACTCGAGTAAACAAATTTTCCTAATCTTTCTGTTCAAGCGCCATCTAC” gave a binding signal (RPM ratio (pull-down/input)) of 0.922. “GATGATTGTTCTCCCAGCTGATGAATTTGATCCCTCGAGTAAACAAATTTTCCTAATCTTTCTGTTCAAGCGCCATCTAC” gave a binding signal (RPM ratio (pull-down/input)) of 0.471. Sequence “GATGATTGTTCTCCCAGCTGATGAATTCTGTGCCTCGAGTAAACAAATTTTCCTAATCTTTCTGTTCAAGCGCCATCTAC” has a binding signal (RPM ratio (pull-down/input)) of 1.19. For “GATGATTGTTCTCCCAGCTGATGAATTGCGAGATTCGAGTAAACAAATTTTCCTAATCTTTCTGTTCAAGCGCCATCTAC”, the binding signal (RPM ratio (pull-down/input)) was 0.748. Work on “GATGATTGTTCTCCCAGCTGATGAATTCGCATGCTCGAGTAAACAAATTTTCCTAATCTTTCTGTTCAAGCGCCATCTAC” yielded a binding signal (RPM ratio (pull-down/input)) of 2.12. Work on “GATGATTGTTCTCCCAGCTGATGAATTTTATTTATCGAGTAAACAAATTTTCCTAATCTTTCTGTTCAAGCGCCATCTAC” yielded a binding signal (RPM ratio (pull-down/input)) of 6.95. Work on “GATGATTGTTCTCCCAGCTGATGAATTATGCTTTTCGAGTAAACAAATTTTCCTAATCTTTCTGTTCAAGCGCCATCTAC” yielded a binding signal (RPM ratio (pull-down/input)) of 4.09. Sequence “GATGATTGTTCTCCCAGCTGATGAATTGCCAGCATCGAGTAAACAAATTTTCCTAATCTTTCTGTTCAAGCGCCATCTAC” has a binding signal (RPM ratio (pull-down/input)) of 1.02. In the case of “GATGATTGTTCTCCCAGCTGATGAATTCGTATATTCGAGTAAACAAATTTTCCTAATCTTTCTGTTCAAGCGCCATCTAC”, the binding signal (RPM ratio (pull-down/input)) is reported as 2.61. In the case of “GATGATTGTTCTCCCAGCTGATGAATTACGCCGTTCGAGTAAACAAATTTTCCTAATCTTTCTGTTCAAGCGCCATCTAC”, the binding signal (RPM ratio (pull-down/input)) is reported as 1.26. “GATGATTGTTCTCCCAGCTGATGAATTCGCAGACTCGAGTAAACAAATTTTCCTAATCTTTCTGTTCAAGCGCCATCTAC” showed a binding signal (RPM ratio (pull-down/input)) of 0.262. Sequence “GATGATTGTTCTCCCAGCTGATGAATTAACGTTTTCGAGTAAACAAATTTTCCTAATCTTTCTGTTCAAGCGCCATCTAC” has a binding signal (RPM ratio (pull-down/input)) of 0.537. “GATGATTGTTCTCCCAGCTGATGAATTCTATTCATCGAGTAAACAAATTTTCCTAATCTTTCTGTTCAAGCGCCATCTAC” gave a binding signal (RPM ratio (pull-down/input)) of 0.519. With “GATGATTGTTCTCCCAGCTGATGAATTGGTCCGTTCGAGTAAACAAATTTTCCTAATCTTTCTGTTCAAGCGCCATCTAC” the binding signal (RPM ratio (pull-down/input)) was 0.317. In the case of “GATGATTGTTCTCCCAGCTGATGAATTCACTGTATCGAGTAAACAAATTTTCCTAATCTTTCTGTTCAAGCGCCATCTAC”, the binding signal (RPM ratio (pull-down/input)) is reported as 0.627. Sequence “GATGATTGTTCTCCCAGCTGATGAATTGCTCGCGTCGAGTAAACAAATTTTCCTAATCTTTCTGTTCAAGCGCCATCTAC” has a binding signal (RPM ratio (pull-down/input)) of 0.761. “GATGATTGTTCTCCCAGCTGATGAATTGGCCGAATCGAGTAAACAAATTTTCCTAATCTTTCTGTTCAAGCGCCATCTAC” showed a binding signal (RPM ratio (pull-down/input)) of 0.222. In the case of “GATGATTGTTCTCCCAGCTGATGAATTGCCTCGCTCGAGTAAACAAATTTTCCTAATCTTTCTGTTCAAGCGCCATCTAC”, the binding signal (RPM ratio (pull-down/input)) is reported as 0.655. For “GATGATTGTTCTCCCAGCTGATGAATTCTTGTGCTCGAGTAAACAAATTTTCCTAATCTTTCTGTTCAAGCGCCATCTAC”, the binding signal (RPM ratio (pull-down/input)) was 0.373. In the case of “GATGATTGTTCTCCCAGCTGATGAATTGCAATCATCGAGTAAACAAATTTTCCTAATCTTTCTGTTCAAGCGCCATCTAC”, the binding signal (RPM ratio (pull-down/input)) is reported as 2.79. Work on “GATGATTGTTCTCCCAGCTGATGAATTTAAAGACTCGAGTAAACAAATTTTCCTAATCTTTCTGTTCAAGCGCCATCTAC” yielded a binding signal (RPM ratio (pull-down/input)) of 0.245. With “GATGATTGTTCTCCCAGCTGATGAATTCTGTGTATCGAGTAAACAAATTTTCCTAATCTTTCTGTTCAAGCGCCATCTAC” the binding signal (RPM ratio (pull-down/input)) was 5.85. For “GATGATTGTTCTCCCAGCTGATGAATTACGTCCGTCGAGTAAACAAATTTTCCTAATCTTTCTGTTCAAGCGCCATCTAC”, the binding signal (RPM ratio (pull-down/input)) was 0.451. For “GATGATTGTTCTCCCAGCTGATGAATTCACCAGGTCGAGTAAACAAATTTTCCTAATCTTTCTGTTCAAGCGCCATCTAC”, the binding signal (RPM ratio (pull-down/input)) was 0.21. In the case of “GATGATTGTTCTCCCAGCTGATGAATTTCTGCAATCGAGTAAACAAATTTTCCTAATCTTTCTGTTCAAGCGCCATCTAC”, the binding signal (RPM ratio (pull-down/input)) is reported as 3.01. “GATGATTGTTCTCCCAGCTGATGAATTTCCCTGCTCGAGTAAACAAATTTTCCTAATCTTTCTGTTCAAGCGCCATCTAC” showed a binding signal (RPM ratio (pull-down/input)) of 0.232. For “GATGATTGTTCTCCCAGCTGATGAATTCGCGAGGTCGAGTAAACAAATTTTCCTAATCTTTCTGTTCAAGCGCCATCTAC”, the binding signal (RPM ratio (pull-down/input)) was 0.304. In the case of “GATGATTGTTCTCCCAGCTGATGAATTTCGTTTATCGAGTAAACAAATTTTCCTAATCTTTCTGTTCAAGCGCCATCTAC”, the binding signal (RPM ratio (pull-down/input)) is reported as 3.7. “GATGATTGTTCTCCCAGCTGATGAATTGCGACCGTCGAGTAAACAAATTTTCCTAATCTTTCTGTTCAAGCGCCATCTAC” was tested, and the binding signal (RPM ratio (pull-down/input)) was 0.963.
